Laboratory results: patent US12274759B2, “Affibody proteins specific for B7-H3 (CD276)” (THE BOARD OF TRUSTEES OF THE LELAND STANFORD JUNIOR …, priority 2018, dated 2025)

System: MS1-WT cells
Test: Flow chamber cell attachment assay under flow shear stress, MS1 wild-type cells
Assay type: cell-based, mouse
Description: Binding specificity of MB-B7-H3-affibody to the target B7-H3 was also assessed in cell culture experiments under flow shear stress conditions simulating flow in blood capillaries by using a parallel flow chamber experimental set-up (see FIG. 4). MS1 B7-H3+ cells between passages 2 and 4 were used in all experiments. Before flow chamber experiment, FACS analysis was performed in order to confirm B7-H3 expression of MS1 B7-H3+ cells. The geometric mean fluorescence intensity was determined using FlowJo software. MS1 B7-H3+ cells were grown on coated (Sigmacote; Sigma, St Louis, Mo) neutral-charged glass microscope slides (VWR, USA) for 24 hours and mounted on a parallel plate flow chamber (GlycoTech, Rockville, Md). […] The adhered microbubble number on the MS1 B7-H3+ cells monolayer was quantified manually by counting attached microbubbles on MS1 B7-H3+ cells with a phase-contrast bright-field microscope (Axiovert 25; Carl Zeiss, Thornwood, NY; original magnification, ×100) to assess the number of attached microbubbles per cell. […]
Flow chamber cell attachment assay. Binding specificity of MBABY-B7-H3 and MBAb-B7-H3 to the target B7-H3 was first assessed in cell culture experiments under flow shear stress conditions simulating flow in blood capillaries by using a flow chamber experimental set-up. […]

B1: MBABY-B7-H3: contrast microbubbles functionalized with ABYB7-H3 (biotinylated ABY on streptavidin-coated, lipid-shelled perfluorocarbon MB) (conjugate)
chain: AEAKYAKEKIFAVGEIYWLPNLTHGQIMAFIAALNDDPSQSSELLSEAKKLNDSQAPKHHHHHH
- average number of microbubbles attached per MS1-WT cell (Example 1, flow chamber): 0.57±0.18 MB/cell
- number of MB attached to MS1WT cells (Example 3, flow shear stress conditions): 1.5±0.3 MB/cell
